Among all 340,000 compounds or so, about 12,000 (3.5%) were called active. Inconclusive means that the source gave no clear call. Such entries were picked first, then a sample of the others. Calls come from the whole dose curve; as a rule, active = well fitted inhibition curve with a large enough effect; inconclusive = small, poorly fitted or top-dose-only effect, or another doubt; inactive = no such curve, though single readings can be large or run the other way. Potencies of inconclusive entries are left out as doubtful fits.
assay: qHTS Assay for Inhibitors of Hepatitis C Virus (HCV); conditions: Huh7.5.1 HCVcc-Cre (HCVcc is cell-culture hepatitis C virus) infection, luciferase reporter, 44 h; activity change, negative = inhibition: at 41.8 µM (top of the series)
Method in brief: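 Reporter virus HCVcc-Cre (~0.5 moi) infects cells exposed to compound; seeding density 1,000 cells/well with 4 h settling beforehand. Luminescence, 15 sec read, taken 44 h post-infection following a 15 min RT substrate incubation.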
% is set by controls: 0 for no effect and ±100 for the full control effect; potency is the fitted concentration of half-maximal effect; tags give direction and shape of the fitted curve.

| SMILES | Potency | activity change, negative = inhibition |
| --- | --- | --- |
| COc1ccc(CN2[C@@H](CC(C)=O)c3cc(C(F)(F)F)ccc3S2(=O)=O)cc1 | inconclusive [inhibitor, single point] | – |
| CC1CCN(c2ccc(-c3ccc(NC(=O)C(F)(F)F)cc3)nn2)CC1 | – | inactive: -16.4% |
| COc1ccc(-n2cc(CNC3CCC(O)CC3)c(-c3cccc(F)c3)n2)cc1 (stereo unspecified) | – | inactive: -8.55% |
| O=S(=O)(c1ccccc1)c1nc(-c2ccccc2)oc1N1CCCCC1 | inconclusive [inhibitor, single point] | – |
| C/C(=N\NC(=S)NCc1ccccc1)c1ccc2c(c1)OCCO2 | inconclusive [inhibitor, single point] | – |
| O=C(CN1CCCCC1)Nc1cc(Cl)ccc1Oc1ccccc1 | inconclusive [inhibitor, partial curve] | – |
| CCC(=O)N1c2ccc(S(=O)(=O)CCC(=O)NCc3cccs3)cc2CC1C (stereo unspecified) | inconclusive [inhibitor, single point] | – |
| Cc1ccc(S(=O)(=O)NCc2ccncc2)cc1C(=O)NCC(C)C | inconclusive [inhibitor, partial curve] | – |
| CCOC(=O)c1c(C)n(C)c2cc(CN(C)C)c(O)c(S(=O)(=O)c3ccccc3)c12 | – | inactive: 2.91% |
| Cc1ccc(NC(=O)CSc2nc3ccccc3c(=O)n2Cc2cccs2)cc1 | inconclusive [inhibitor, single point] | – |
| CC(=O)c1ccccc1OCCOCCOc1ccccc1C(C)=O | inconclusive [inhibitor, partial curve] | – |
| CCN(C(=O)CSc1nc2ccc([N+](=O)[O-])cc2s1)c1c(N)n(Cc2ccccc2)c(=O)[nH]c1=O | inconclusive [inhibitor, single point] | – |
| CCOc1ccc(/C=N/NC(=O)Nc2ccccc2)cc1 | inconclusive [inhibitor, partial curve] | – |
| CC(=O)C1(C)CCC2C3C=C(C)C4=CC(=O)CCC4(C)C3CCC21C (stereo unspecified) | inconclusive [inhibitor, single point] | – |
| CCOC(=O)c1c(C)n(COCCO)c2ccc(O)cc12 | inconclusive [inhibitor, single point] | – |
| O=C(O)c1ccc(N/N=C/c2cn(Cc3ccccc3F)c3ccccc23)cc1 | – | inactive: 6.19% |
| COc1ccc(-n2cc(CN(C)C3CCOCC3)c(-c3cccc(F)c3)n2)cc1 | inconclusive [inhibitor, single point] | – |
| COc1ccc(C)cc1NCc1ccc([N+](=O)[O-])cc1 | inconclusive [inhibitor, single point] | – |
| Cc1ccc2nc(N(CCCN(C)C)C(=O)c3ccc4ncsc4c3)sc2c1 | inconclusive [inhibitor, single point] | – |
| O=C1N=c2ccccc2=C1c1sc(=S)n(-c2ccc(O)cc2)c1O | inconclusive [inhibitor, single point] | – |
| OC(CNCc1ccccc1)Cn1ccc2ccccc21 (stereo unspecified) | active: 11.2 µM | – |
| O=C(Nc1ccccc1N1CCOCC1)c1cccnc1Cl | – | inactive: 8.83% |
| Cc1ccc(C)c(-n2c(CNC(=O)c3ccco3)nnc2SCC(=O)N2CCc3ccccc32)c1 | – | inactive: 16% |
| C=CC[C@@H](CC(=O)N[C@H](CO)Cc1ccccc1)C(=O)NCCOC(=O)[C@@H](CC=C)CC(=O)OC(C)(C)C | – | inactive: 4.95% |

| SMILES | Potency | activity change, negative = inhibition |
| --- | --- | --- |
| O=C(CSc1nnc2c(Cl)cc(C(F)(F)F)cn12)NCc1ccc(F)cc1 | – | inactive: 15.2% |
| Cn1c(=S)c2[nH]c(SCC3CCCO3)nc2n(C)c1=O (stereo unspecified) | – | inactive: -25% |
| CN(C)CCCCCN(C)Cc1cc2ccccc2o1 | active: 3.16 µM | – |
| COC(=O)c1sccc1-c1ccc(C(=O)Nc2cccnc2)o1 | inconclusive [inhibitor, partial curve] | – |
| COc1ccc(-c2noc(CNC(=O)c3ccoc3C)n2)cc1OC | – | inactive: -12.6% |
| N=c1sccn1CC(=O)Nc1ccc(SC(F)F)cc1 | inconclusive [inhibitor, partial curve] | – |
| NS(=O)(=O)c1ccc(CCNC(=O)c2ccccc2Cc2ccccc2)cc1 | – | inactive: 4.4% |
| CCn1c(=O)n(CC)c2cc(N3CCCC3)c(NC(=O)c3ccccc3)cc21 | inconclusive [inhibitor, partial curve] | – |
| Cc1cc(=O)oc(C)c1C(=O)NCc1cccnc1 | – | inactive: 6.97% |
| CCC1=C(OC(=O)N(CC)CC)N2C(=O)OC(=NCCc3c[nH]c4ccccc34)[C@]2(C)[C@H]2C1=CC[C@H]1C(=O)N(CC(=O)OC)C(=O)[C@H]12 | – | inactive: -12.4% |
| CCOC(=O)[C@@H]1[C@H]2COc3cc(OC)ccc3[C@@H]2N2C(=O)N(c3ccc(Br)cc3)C(=O)[C@@]12C | – | inactive: -29% |
| O=C(CN1CCCCC1CO)c1ccc(OC(F)F)cc1 (stereo unspecified) | – | inactive: 17.5% |
| Cc1ccc(NC(=O)C2CCN(c3ncnc4c3nc3n4CCCCC3)CC2)cc1Cl | inconclusive [inhibitor, partial curve] | – |
| COc1cc2c(c(OC)c1OC)-c1ccc(O)c(=O)cc1C(NC(C)=O)CC2 (stereo unspecified) | – | inactive: 13.6% |
| COC(=O)C1=C(C)N(Cc2cccnc2)C(=O)/C1=C\c1sccc1C | active: 11.2 µM | – |
| O=C1CCc2cc(NS(=O)(=O)c3ccccc3)cc3c2N1CCC3 | inconclusive [inhibitor, single point] | – |
| CC(=O)c1cccc(NC(=O)C2CCCCC2)c1 | – | inactive: -0.262% |
| CCOc1cc(C(=S)N2CCOCC2)ccc1OS(=O)(=O)c1ccc(Br)cc1 | active: 10 µM | – |
| Fc1cccc(/C=N/Nc2nc3ccccc3[nH]2)c1 | – | inactive: -2.38% |
| COc1cc(OC)cc(C(=O)Nc2ccc3nc4n(c(=O)c3c2)CCCCC4)c1 | inconclusive [inhibitor, partial curve] | – |
| CN(C(=O)c1ccccc1NC(=O)C(F)(F)F)c1ccccc1 | inconclusive [inhibitor, single point] | – |
| COc1cccc(/C=N/NC(=O)CN(CCc2ccccc2)S(=O)(=O)c2ccc(NC(C)=O)cc2)c1 | inconclusive [inhibitor, single point] | – |
| COc1cc(C2NC(=S)NC(C)=C2C(=O)c2ccccc2)ccc1O (stereo unspecified) | – | inactive: -10.3% |
| Fc1ccccc1-c1nc2ncccc2o1 | – | inactive: 11.1% |

| SMILES | Potency | activity change, negative = inhibition |
| --- | --- | --- |
| CCOc1ccc(NC(=O)CN(C)C(=O)c2cccc3ccccc23)cc1OCC | inconclusive [inhibitor, partial curve, poor fit] | – |
| CCn1c(CSc2nc3ccccc3s2)nc2ccccc21 | inconclusive [inhibitor, partial curve] | – |
| O=C(CN1C(=O)CSC1=O)N1CCc2ccccc2C1 | – | inactive: 8.68% |
| Cc1ccccc1N(C(=O)Cn1nnc(-c2cccs2)n1)C(C(=O)NCCC(C)C)c1ccco1 (stereo unspecified) | inconclusive [inhibitor, single point] | – |
| COc1cc(CCC(=O)Nc2cc(C)cc(C)c2)cc(OC)c1OC | inconclusive [inhibitor, partial curve] | – |
| CC(OC(=O)C1CCC(=O)N1)C(=O)Nc1cc(Cl)cc(Cl)c1 (stereo unspecified) | inconclusive [inhibitor, single point] | – |
| CCCCCn1nc(C)c(/C=N\NC(=O)c2cc(C)oc2C)c1C | inconclusive [inhibitor, partial curve] | – |
| COc1cccc(NC(=O)C2CCCN(c3ncnc4c3nc3n4CCCCC3)C2)c1 (stereo unspecified) | inconclusive [inhibitor, single point] | – |
| Cc1c(NS(=O)(=O)c2cc(C(=O)N3CCCC(C)C3)ccc2Cl)c(=O)n(-c2ccccc2)n1C (stereo unspecified) | – | inactive: 6.95% |
| FC(F)(F)c1cccc(CNC2CCN(Cc3ccccc3)CC2)c1 | inconclusive [inhibitor, partial curve] | – |
| COc1cccc(CNC(=O)C2CCN(S(=O)(=O)N3CCC(C)CC3)CC2)c1 | inconclusive [inhibitor, single point] | – |
| Cc1nn(CC(=O)Nc2ccc3c(c2)nc(CCN2CCCCC2)n3C)c(=O)c2ccccc12 | inconclusive [inhibitor, single point] | – |
| Cc1onc(-c2c(F)cccc2Cl)c1C(=O)N(C)CC(=O)Nc1cccc(F)c1 | inconclusive [inhibitor, partial curve] | – |
| O=C(c1ccc(Cl)cc1)N1CCN(CCOc2ccccc2)CC1 | inconclusive [inhibitor, single point] | – |
| CC(=O)NC12CC3CC(C1)CC(C(=O)Oc1ccc(N(C)S(=O)(=O)c4cc(C)ccc4C)cc1)(C3)C2 | inconclusive [inhibitor, single point] | – |
| N=c1sccn1CC(=O)Nc1cc(S(=O)(=O)N2CCCCC2)ccc1Cl | inconclusive [inhibitor, single point] | – |
| O=C(CNC(=O)c1cccnc1)N/N=C/c1ccc(O)cc1O | – | inactive: 0.0205% |
| Cc1cc(C)c(NC(=O)/C(=C/c2ccco2)c2ccccc2)c(C)c1 | inconclusive [inhibitor, partial curve] | – |
| Cc1ccccc1NC(=O)Cc1nc(COC(=O)CC(C)c2ccccc2)cs1 (stereo unspecified) | – | inactive: 9.75% |
| CCN(CC(=O)Nc1ccc(N2CCOCC2)cc1)C(=O)Cc1ccccc1 | – | inactive: 17% |
| O=C(O)c1cc([N+](=O)[O-])ccc1NCCCc1ccccc1 | inconclusive [inhibitor, single point] | – |
| CCOC(=O)c1ccc(NC(=S)N(CCCN(CC)CC)Cc2ccco2)cc1 | inconclusive [inhibitor, full curve] | – |
| CCOC(=O)CCn1cc(F)c(=O)n(Cc2ccccc2)c1=O | inconclusive [inhibitor, partial curve, poor fit] | – |
